# Key:
# [1] = system: NCCCCNCCCN; test: purified protein, by the assay type; conditions: 37.0 °C
# [2] = system: T1, NCCCCNCCCN; test: purified protein, by the assay type; format: biochemical; conditions: other: representative plot FIG. 3, transgenic mouse liver supernatant, no amantadine; 37.0 °C
# T1 construct: from tissue; host or cells: liver 100,000xg supernatant of transgenic and non-transgenic male CD2F1 mice
substance,measurement,setting,value
spermidine/spermine N1-acetyltransferase (SSAT) (Mus musculus),Km,[1],267 ± 46 µM
same,Km,[2],263 µM
same,Vmax,[2],0.010 nmol/min/mg protein

# Source: patent publication US6811967B2, “Method for assaying non-spermine/spermidine activity of spermidine/spermine N1-acetyltransferase (SSAT)” (The University of Manitoba, priority 2001, dated 2004)
